These results are taken from article PMC4251979.

By UniProt entry, the sequences of proteins in these tests, tags left out.
UniProt Q6P1D7: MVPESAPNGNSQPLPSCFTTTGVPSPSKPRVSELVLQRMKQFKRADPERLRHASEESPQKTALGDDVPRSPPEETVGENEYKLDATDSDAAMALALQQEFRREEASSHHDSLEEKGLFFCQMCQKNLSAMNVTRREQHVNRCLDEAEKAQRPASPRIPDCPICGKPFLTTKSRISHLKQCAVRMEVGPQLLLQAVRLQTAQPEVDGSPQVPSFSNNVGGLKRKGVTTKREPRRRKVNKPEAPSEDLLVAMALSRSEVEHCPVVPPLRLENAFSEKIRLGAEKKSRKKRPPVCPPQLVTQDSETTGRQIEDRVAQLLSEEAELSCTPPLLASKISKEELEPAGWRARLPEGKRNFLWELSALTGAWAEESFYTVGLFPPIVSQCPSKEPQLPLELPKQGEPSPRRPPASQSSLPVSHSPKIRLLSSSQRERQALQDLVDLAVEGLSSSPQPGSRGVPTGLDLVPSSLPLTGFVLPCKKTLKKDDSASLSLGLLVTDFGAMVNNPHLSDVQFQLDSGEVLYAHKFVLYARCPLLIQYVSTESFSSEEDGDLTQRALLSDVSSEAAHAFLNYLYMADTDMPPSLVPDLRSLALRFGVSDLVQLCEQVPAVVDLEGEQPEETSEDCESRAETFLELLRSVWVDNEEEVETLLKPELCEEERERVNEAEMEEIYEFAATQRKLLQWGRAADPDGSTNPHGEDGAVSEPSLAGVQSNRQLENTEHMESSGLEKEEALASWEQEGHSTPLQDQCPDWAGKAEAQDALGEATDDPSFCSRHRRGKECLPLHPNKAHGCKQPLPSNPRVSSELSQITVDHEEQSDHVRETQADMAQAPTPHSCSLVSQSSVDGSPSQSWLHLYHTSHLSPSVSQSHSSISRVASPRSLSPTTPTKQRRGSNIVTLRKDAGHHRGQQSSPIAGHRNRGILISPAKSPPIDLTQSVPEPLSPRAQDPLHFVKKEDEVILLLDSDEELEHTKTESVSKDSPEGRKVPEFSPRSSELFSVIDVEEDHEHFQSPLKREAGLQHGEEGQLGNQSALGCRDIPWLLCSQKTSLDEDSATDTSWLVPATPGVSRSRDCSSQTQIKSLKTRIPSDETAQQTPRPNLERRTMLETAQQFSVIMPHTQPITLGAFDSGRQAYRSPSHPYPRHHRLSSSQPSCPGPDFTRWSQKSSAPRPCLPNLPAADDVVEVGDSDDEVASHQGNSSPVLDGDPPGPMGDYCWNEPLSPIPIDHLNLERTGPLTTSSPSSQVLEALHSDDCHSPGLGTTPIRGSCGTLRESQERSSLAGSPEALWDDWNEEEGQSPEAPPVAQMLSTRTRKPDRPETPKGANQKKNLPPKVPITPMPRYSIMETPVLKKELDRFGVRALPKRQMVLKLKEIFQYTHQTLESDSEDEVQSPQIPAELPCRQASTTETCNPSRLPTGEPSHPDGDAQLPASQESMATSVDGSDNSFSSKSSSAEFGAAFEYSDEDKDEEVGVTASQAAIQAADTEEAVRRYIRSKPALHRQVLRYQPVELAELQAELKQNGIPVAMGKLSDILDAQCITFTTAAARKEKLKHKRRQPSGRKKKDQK
UniProt Q8IY92: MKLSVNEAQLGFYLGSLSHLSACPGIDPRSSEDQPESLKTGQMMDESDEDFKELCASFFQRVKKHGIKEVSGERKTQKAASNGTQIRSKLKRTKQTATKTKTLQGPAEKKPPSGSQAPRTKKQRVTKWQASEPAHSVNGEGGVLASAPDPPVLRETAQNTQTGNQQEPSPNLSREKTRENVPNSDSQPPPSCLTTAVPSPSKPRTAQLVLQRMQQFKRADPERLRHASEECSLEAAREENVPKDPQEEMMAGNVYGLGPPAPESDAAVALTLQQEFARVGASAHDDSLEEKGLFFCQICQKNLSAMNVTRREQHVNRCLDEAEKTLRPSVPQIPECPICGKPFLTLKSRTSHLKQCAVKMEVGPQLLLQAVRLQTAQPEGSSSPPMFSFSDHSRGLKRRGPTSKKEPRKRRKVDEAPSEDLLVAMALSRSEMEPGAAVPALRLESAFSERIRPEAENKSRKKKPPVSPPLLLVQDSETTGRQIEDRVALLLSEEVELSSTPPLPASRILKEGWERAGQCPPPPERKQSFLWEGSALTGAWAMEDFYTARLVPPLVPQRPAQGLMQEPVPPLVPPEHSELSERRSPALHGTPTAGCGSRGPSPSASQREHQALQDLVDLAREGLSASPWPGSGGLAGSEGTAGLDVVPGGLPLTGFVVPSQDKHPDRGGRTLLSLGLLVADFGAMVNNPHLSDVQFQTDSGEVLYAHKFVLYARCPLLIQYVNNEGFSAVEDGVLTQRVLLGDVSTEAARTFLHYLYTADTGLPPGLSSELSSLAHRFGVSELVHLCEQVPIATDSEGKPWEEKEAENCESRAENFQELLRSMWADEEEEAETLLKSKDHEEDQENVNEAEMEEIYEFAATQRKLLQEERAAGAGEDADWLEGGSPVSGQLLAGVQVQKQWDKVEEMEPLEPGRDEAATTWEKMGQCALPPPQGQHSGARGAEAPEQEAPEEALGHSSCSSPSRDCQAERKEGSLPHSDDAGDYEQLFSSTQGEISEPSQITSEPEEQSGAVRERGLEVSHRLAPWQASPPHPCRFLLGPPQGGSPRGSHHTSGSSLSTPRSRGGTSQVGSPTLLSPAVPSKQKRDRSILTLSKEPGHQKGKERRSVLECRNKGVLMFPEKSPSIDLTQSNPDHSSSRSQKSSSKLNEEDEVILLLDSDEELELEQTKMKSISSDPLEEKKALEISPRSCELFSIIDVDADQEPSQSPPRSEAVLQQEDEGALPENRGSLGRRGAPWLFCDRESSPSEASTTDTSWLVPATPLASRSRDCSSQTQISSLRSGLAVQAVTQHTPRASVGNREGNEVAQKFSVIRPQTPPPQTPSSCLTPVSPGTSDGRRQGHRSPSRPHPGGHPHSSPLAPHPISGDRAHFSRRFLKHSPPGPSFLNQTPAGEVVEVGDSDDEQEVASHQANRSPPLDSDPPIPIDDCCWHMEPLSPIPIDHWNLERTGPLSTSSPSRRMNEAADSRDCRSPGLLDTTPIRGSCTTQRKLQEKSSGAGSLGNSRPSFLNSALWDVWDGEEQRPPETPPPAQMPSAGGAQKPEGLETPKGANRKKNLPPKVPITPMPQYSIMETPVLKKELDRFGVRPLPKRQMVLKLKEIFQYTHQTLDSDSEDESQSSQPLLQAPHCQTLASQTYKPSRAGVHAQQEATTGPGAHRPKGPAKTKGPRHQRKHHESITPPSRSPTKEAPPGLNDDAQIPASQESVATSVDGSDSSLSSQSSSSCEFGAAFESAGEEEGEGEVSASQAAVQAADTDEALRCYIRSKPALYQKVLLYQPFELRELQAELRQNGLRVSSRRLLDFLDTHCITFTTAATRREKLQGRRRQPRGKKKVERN

Residue numbers refer to the chain shown, from its start. Names and notes keep the numbering of the source. These are yes or no findings as the source states them, for the method shown. For some of these results: Binding seen in cells or lysates may run through a third protein. Some binding calls cover weakened binding; strength is not graded here. For some of these results: Tags and fused reporters may be left off the sequences shown.

Experiment [1] concerns the target T1, MUS81 fragment (1-250) fused to a GAL4-DNA binding domain (human) (UniProt Q96NY9).
T1 sequence: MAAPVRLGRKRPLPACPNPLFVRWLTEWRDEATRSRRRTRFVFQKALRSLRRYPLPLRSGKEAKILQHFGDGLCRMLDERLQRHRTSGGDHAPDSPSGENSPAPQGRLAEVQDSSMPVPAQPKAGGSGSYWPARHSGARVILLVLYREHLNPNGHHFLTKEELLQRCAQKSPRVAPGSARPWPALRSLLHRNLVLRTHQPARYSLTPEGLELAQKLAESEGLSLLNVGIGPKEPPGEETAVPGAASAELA
Kind of experiment: two-hybrid; yeast two-hybrid; MUS81 fused to GAL4 DNA binding domain, SLX4 fused to GAL4 activation domain; HIS3 and lacZ reporters.

Experiment [2] addresses T2, MUS81 fragment (1-106) fused to a GAL4-DNA binding domain (human) (UniProt Q96NY9).
T2 sequence: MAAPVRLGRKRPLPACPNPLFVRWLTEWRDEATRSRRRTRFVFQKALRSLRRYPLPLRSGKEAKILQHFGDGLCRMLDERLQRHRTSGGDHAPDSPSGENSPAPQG
The experiment is described as above.

Experiment [3] deals with SLX4 (MEFs) (mouse (endogenous in MEFs)) (UniProt Q6P1D7). Briefly: co-IP; extracts of Mus81-/- MEFs complemented by retroviruses with MUS81 (wild type or mutants); immunoprecipitation with anti-SLX4 antibodies, western blotting. On the technique in general: In western blotting, separated proteins are transferred to a membrane and probed.
Experiment [4] has as its target T3, FLAG-MUS81 W24A L25A (human) (UniProt Q96NY9).
T3 sequence: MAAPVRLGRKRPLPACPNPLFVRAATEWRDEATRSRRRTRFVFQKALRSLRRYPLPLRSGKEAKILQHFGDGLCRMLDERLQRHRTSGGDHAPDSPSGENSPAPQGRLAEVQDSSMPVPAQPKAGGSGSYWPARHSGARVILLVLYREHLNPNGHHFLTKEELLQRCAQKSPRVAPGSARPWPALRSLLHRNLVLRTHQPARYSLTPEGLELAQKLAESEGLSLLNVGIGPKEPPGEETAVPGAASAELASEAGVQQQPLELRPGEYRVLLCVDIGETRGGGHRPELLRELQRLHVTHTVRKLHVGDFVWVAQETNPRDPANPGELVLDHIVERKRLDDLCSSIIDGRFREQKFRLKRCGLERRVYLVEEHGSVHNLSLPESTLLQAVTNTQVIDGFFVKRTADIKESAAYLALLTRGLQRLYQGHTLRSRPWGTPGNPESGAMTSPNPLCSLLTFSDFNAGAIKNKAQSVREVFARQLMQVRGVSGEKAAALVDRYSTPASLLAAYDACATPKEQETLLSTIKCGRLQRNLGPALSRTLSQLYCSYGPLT
Briefly: co-IP; HEK293 cells transiently transfected with FLAG-MUS81 (wild type or mutants); extracts immunoprecipitated with anti-FLAG (FLAG-M2 agarose beads), western blotting.

Experiment [5] addresses T4, FLAG-MUS81 L66A Q67A (human) (UniProt Q96NY9).
T4 sequence: T3 sequence with A24W, A25L, L66A, Q67A
The experiment is described as above.

Experiment [6] deals with endogenous SLX4 (human cells) (human (endogenous in HEK293 and HCT116)) (UniProt Q8IY92). Kind of experiment: co-IP; extracts of MUS81-/- HCT116 cells complemented by retroviruses with MUS81 (wild type or mutants); immunoprecipitation with anti-MUS81 and anti-SLX4 antibodies, western blotting.

As for “full-length SLX4 fused to a GAL4-activation domain (from UniProt Q8IY92 1-1834)”, the binding entry in experiment [1] and in experiment [2] was “binds” in each case.

B1: wild-type mouse MUS81 (protein, UniProt Q91ZJ0 1-551)
chain: MAEPVRLGRKRPLPVCPNPLFVRWLTEWRDEAASRGRHTRFVFQKALRSLQRYPLPLRSGKEAKILQHFGDRLCRMLDEKLKQHLASGGDHAPSSPSGKKGASKGPPEQVQDSSMPVPTQPQAGSTSVGYWPAQNSGAREILLQLYREHLNSDGHSFLTKEELLQKCAQKTPRVVPGSSKPWPALRSLLHRNLILGTHRPARYALTPEGLELAQKLAEAEGLSTRHAGFRPEEHHGEDSAVPEALSEPGTTEGAVQQRPLELRPSEYRVLLCVDIGETRGAGHRPEMLRELQRLRVPHTVRKLHVGDFVWVAQETRPRDPERPGELVLDHIVERKRLDDLCSSIIDGRFREQKFRLKRCGLGHRVYLVEEHGSVHNLSLPESTLLQAVTNTQVIDGFFVKRTMDIKESAGYLALLTKGLERLYQGHTLRSRPWGAPGAAESEAKPSTNPLCSLLTFSDFNAEAVKNKAQSVREVFARQLMQVRGLSGEKAAAVVDRYSTPASLLAAYDACATAKEQEMLLSTIKCGRLQRNLGPALSRTLYQLYCSHSPLS
On to B1, for which the binding result in experiment [3] was “binds”.

B2: full-length mouse MUS81 W24A L25A (protein, UniProt Q91ZJ0 1-551)
chain: B1 chain with W24A, L25A
B2: the binding result in experiment [3] is given as “no binding”.

B3: full-length mouse MUS81 L66A Q67A (protein, UniProt Q91ZJ0 1-551)
chain: B1 chain with L66A, Q67A
Regarding B3, the binding result in experiment [3] is given as “no binding”.

B4: EME1 (HEK293 cells) (protein, UniProt Q96AY2 1-570)
chain: MALKKSSPSLDSGDSDSEELPTFAFLKKEPSSTKRRQPEREEKIVVVDISDCEASCPPAPELFSPPVPEIAETVTQTQPVRLLSSESEDEEEFIPLAQRLTCKFLTHKQLSPEDSSSPVKSVLDHQNNEGASCDWKKPFPKIPEVPLHDTPERSAADNKDLILDPCCQLPAYLSTCPGQSSSLAVTKTNSDILPPQKKTKPSQKVQGRGSHGCRQQRQARQKESTLRRQERKNAALVTRMKAQRPEECLKHIIVVLDPVLLQMEGGGQLLGALQTMECRCVIEAQAVPCSVTWRRRAGPSEDREDWVEEPTVLVLLRAEAFVSMIDNGKQGSLDSTMKGKETLQGFVTDITAKTAGKALSLVIVDQEKCFSAQNPPRRGKQGANKQTKKQQQRQPEASIGSMVSRVDAEEALVDLQLHTEAQAQIVQSWKELADFTCAFTKAVAEAPFKKLRDETTFSFCLESDWAGGVKVDLAGRGLALVWRRQIQQLNRVSLEMASAVVNAYPSPQLLVQAYQQCFSDKERQNLLADIQVRRGEGVTSTSRRIGPELSRRIYLQMTTLQPHLSLDSAD
B4: the binding result in experiment [4] and in experiment [5] was “binds” each time.

B5: wild-type MUS81 expressed in MUS81-/- HCT116 cells (protein, UniProt Q96NY9 1-551)
chain: T3 sequence with A24W, A25L
For the molecule B5, the binding entry in experiment [6] is “binds”.

B6: MUS81 66/67AA expressed in MUS81-/- HCT116 cells (protein, UniProt Q96NY9 1-551)
chain: T3 sequence with A24W, A25L, L66A, Q67A
Turning to B6, the binding result in experiment [6] is “no binding”.

B7: MUS81 24/25AA expressed in MUS81-/- HCT116 cells (protein, UniProt Q96NY9 1-551)
chain: T3 sequence
On to B7, for which the binding entry in experiment [6] is “no binding”.
